Measurements published in the supplement of paper PMC11417369.
± gives the standard deviation of the averaged measurements. The list shows a part of the results.

What follows are sequences tested on PfAP2-EXP AP2 domain (GST-tagged) (assay: gcPBM binding intensity (ln(normalized median fluorescence intensity)); higher = stronger DNA binding).
How it was run: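 An Agilent 4 × 180k array of primer-extended double-stranded 36-bp intergenic genomic probes, with negative controls, was incubated for 1 h with GST-tagged P. falciparum DNA-binding domains expressed in E. coli. Alexa488 anti-GST antibody detected bound protein, scanned at 488 nm. Binding intensity is the highest Masliner-normalised natural-log median intensity across replicate spots of either probe orientation.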

Sequence | gcPBM binding intensity (ln)
AAATTCCACGGACACACACACATATAAATAAATAAA [CACACA_site4811] | 8.73 ± 0.45
TGTAGTCTGGAGAAAAGTACATAGTATCTGGTAGCT [XGTACX_site2031] | 8.63 ± 0.4
GAAAGAAATAAAGGTGGTACATAAATAAAAACTAAG [XGTACX_site4826] | 9 ± 0.51
TTTACACGTACGTGTACACACAAAAATATGTTTTTA [CACACA_site995] | 8.82 ± 0.33
AACATAAAAAAAATATGTACATATATAATATATATA [XGTACX_site3764] | 8.85 ± 0.23
AATATATGGTTTCATGATATTAAATACAATTTAATG [CACACA_negctrl_site1503] | 8.13 ± 0.42
CTATAATTATGATGAAGTACATATGAGTTCAAAAAA [XGTACX_site3070] | 8.7 ± 0.33
ATATATATATGTATATGTACTTATATTATTGTTTGT [XGTACX_site1466] | 9.55 ± 0.12
ACATAATGCTAGACACGTACGTACATCCGTGAGGTT [XGTACX_site4156] | 8.78 ± 0.39
GTAAAAGAACGGCATGCATGAAAAATATTACACATG [TGCATGCA_site143] | 9.38 ± 0.38
TTATTATTATATTCTACATGCAGTTTGTGTAGAACA [TGCATGCA_site455] | 8.87 ± 0.17
TGAACTCAACAAAGGGTGCATAACAAAAATAGACGT | 9.565 ± 0.021
TTTCAATAATAAAAAACACACACAAAAAAAAATAAT [CACACA_site8905] | 8.93 ± 0.68
AAAAATATAAACACCAGTACACAAACCTATAATGGA [XGTACX_site3846] | 8.76 ± 0.49
AAAGTAAATTTAAGCACACACAACGAATTTTTATAC [CACACA_site1959] | 8.72 ± 0.092
TGTACGAGTCGTAGAGTGCAGTCTGGAGAAGAGTAC [GTGCAC_site9684] | 9.22 ± 0.4
AAAATTTATAAAAGCACACAAAATAAAAAAAAATGA [CACACA_site1491] | 8.69 ± 0.52
TTTTGTTATATACAATAGATCAGAAGAAATGAAGTT [CACACA_negctrl_site1579] | 8.69 ± 0.49
TTATAATATGTATACACACACATATATAAATATATA [CACACA_site2326] | 8.3 ± 0.34
CTTACGTATTAAGTGTGTCCGTAGTGTTCATAGTTC [XGTACX_site8913] | 8.54 ± 0.49
CAATGTTAACATATTACACACATATGTATATAGAAT [CACACA_site2732] | 8.88 ± 0.4
TATATATGTATATATTTTATAAGTATGCAAGAAAAT [TGCATGCA_negctrl_site486] | 8.89 ± 0.4
ATATTGGAATAAATTTGTACATATATATATTATTCA [XGTACX_site916] | 8.41 ± 0.32

Sequence | gcPBM binding intensity (ln)
TTGCATCTACATTTATGTACATATCTTATGATAAAT [XGTACX_site2146] | 8.61 ± 0.3
ACAATAATTTCCATCACACATATATTTATATATTAC [CACACA_site6003] | 8.62 ± 0.39
ATACATATTCTTATTTGTACTTATTATAAAATGGTC [XGTACX_site6584] | 8.41 ± 0.29
TAACTGATATATAAAACACACATCATAAAAATATAA [CACACA_site6499] | 8.42 ± 0.55
ACACATATAAATAAAACATGCATATGTAAATATATA [TGCATGCA_site403] | 8.64 ± 0.48
TATAATATAATATTTTGTACATATGATAAAAAAAAA [XGTACX_site6858] | 8.48 ± 0.48
AATTATACTCACGTTACACACACACTATATATATAT [CACACA_site9375] | 9.89 ± 0.26
TTGAACCTGATAAATACACACAATATAGATTTTTTT [CACACA_site7091] | 8.09 ± 0.35
TCAAAATGTTACAAATTATGTTGGCTAAAATTTTAA [TGCATGCA_negctrl_site188] | 8.12 ± 0.4
AAATATATCTTCTTTGCACACTTAAAGGGAAGTGAT [CACACA_site343] | 8.56 ± 0.33
AGATATATTTTTTAAATTTAAAAATTATAAAATTTA [CACACA_negctrl_site533] | 8.07 ± 0.42
GCATATAAAATAAATCGTACATGTAAAACATAATTA [XGTACX_site7077] | 8.46 ± 0.32
GGCAGCAATTTAGTTACACACATATATAGGTATACA [CACACA_site76] | 8.69 ± 0.4
GATAGAAAAAAATAATGTACACACACATATATGTTT [XGTACX_site392] | 8.57 ± 0.28
TACACATACCCATACACACGCATAGAAACATACGAA [CACACA_site5212] | 8.51 ± 0.49
TATTTTTATTTTAATTGTACTTTTTAATTAATAATA [XGTACX_site8302] | 8.6 ± 0.23
TTTCTTTTTTCTGTTATTATTATAAAACGATATTTA [TGCATGCA_negctrl_site167] | 8.61 ± 0.59
AATATTTTATATGTAGTGCATTACTATAGGATTTAT [GTGCAC_site9424] | 8.82 ± 0.21
GCTGAAAGGATAAAGGTGCATATTTTTTAAAAAATT [GTGCAC_site9487] | 8.86 ± 0.11
TTTTTTTTTTTTATATGTACTAATAATCTTTTTTTT [XGTACX_site3552] | 8.31 ± 0.54
ACAAAATAAACGGCTGCACACAAGAAGCACAATATT [CACACA_site3690] | 8.74 ± 0.42
TGCTTATATCTTATAATATTTATACATCATAATAAG [CACACA_negctrl_site629] | 8.36 ± 0.42
TGTGTCAAATAATTAATGTCATATATATTTTGTATA [CACACA_negctrl_site1479] | 8.22 ± 0.33

Sequence | gcPBM binding intensity (ln)
TATATATATATATATATACACACTATATAATTCAAA [CACACA_site1023] | 10.2 ± 0.44
TTTTTTTTTTTTTAGAGTACACACTTTTTTACATTT [XGTACX_site8159] | 8.34 ± 0.43
TTAACATAGATATATACACACCAATGATGGCATTTA [CACACA_site6840] | 8.22 ± 0.37
AAATAAAAGTTCACCTGTACACACATATATATATGT [XGTACX_site3513] | 8.84 ± 0.53
CATAAAATATAAAACACACACACATATATTTATATA [CACACA_site6247] | 8.7 ± 0.54
TTGTGATTATTATATTGTACAATAAGTATTAAAGAA [XGTACX_site2753] | 8.84 ± 0.085
GCAAATCATGCTATGGTGCATATGTAAGATGAGCAT | 9.03 ± 0.31
TTCCTCTTAAAATATACACACTGATTTAAGAAAAAA [CACACA_site5770] | 8.16 ± 0.34
ATATATAATACTACAGTGCAATATATTATATTTGTT | 8.615 ± 0.035
ATACTAAATATAAATTGTACTTTATTTATATTGAGA [XGTACX_site8699] | 8.38 ± 0.38
AGAATACATCTATGAACACACAGAGTTTTAAAAAAT [CACACA_site5514] | 8.46 ± 0.45
ATATTATTTTAAAGTACACACATATATTGATATATA [CACACA_site7153] | 8.48 ± 0.26
TTTTTCATTTAACAGAAGGGAGATAAAAAAAAAAAA [TGCATGCA_negctrl_site261] | 8.56 ± 0.53
AATAATTATAAAAAATGTACAAAAAAAAAAAAAAAA [XGTACX_site3681] | 8.18 ± 0.39
GTATGTATGTATGTATGTACGTATGTATGTATATAT [XGTACX_site3369] | 9.27 ± 0.2
AAAATAATATTTAATACACACATAATTATAATATAA [CACACA_site782] | 8.48 ± 0.32
ATTTTTAATTGAATCACACATTTCCTTTCTTTTGTG [CACACA_site4438] | 8.67 ± 0.49
ACCTTTTGGATTATATGTACATATATATATATATAT [XGTACX_site2687] | 10.2 ± 0.13
ATTAAAAATAAGAAGAGTACATATAATATATATACA [XGTACX_site3092] | 8.47 ± 0.36
TTAAAAAGAAAGTTCACACACATATATATGACGGAA [CACACA_site2602] | 8.93 ± 0.45
TTTATATTTATCCAAAGTACTTTTTAAAAACATACC [XGTACX_site4518] | 8.53 ± 0.43
ATGAACATTTATAAATGTACTCACATATATATATTT [XGTACX_site6692] | 8.71 ± 0.42
AACACTTTAATTTATGCACACATATGGAACAACAGC [CACACA_site8241] | 8.87 ± 0.23

Sequence | gcPBM binding intensity (ln)
AACATTTTTAGATTATATTATTAAATAAGTAACTGC [XGTACX_negctrl_site326] | 8.29 ± 0.45
AGATATATATTTTATTGTACACATTAAAGTATAAAA [XGTACX_site7194] | 8.36 ± 0.23
TATGTATTTATATATACACACTTCTGTGATACGAAA [CACACA_site5128] | 8.46 ± 0.55
AAGTTTTTTATTTTTTGTACATAAAAAATAATAATT [XGTACX_site1755] | 8.29 ± 0.3
TTTTTGTTTTTTTTTTGTACATATATATAAAAAATA [XGTACX_site1214] | 8.62 ± 0.38
TTTTTTTTAATATTTTACATTGTCTGTTAACAAATA [CACACA_negctrl_site599] | 8.54 ± 0.49
GGGAGGATAGTTCACAGTACCCAGTAACTCTACGGA [XGTACX_site2558] | 8.65 ± 0.52
ATTTATTGACTATTTACACACATATTTATTAGAATA [CACACA_site6863] | 8.65 ± 0.45
ATGATACATAAAGAATATAAAACATGAAATATAATA [CACACA_negctrl_site1461] | 8.56 ± 0.47
TAATTTAAAAATATAAATGTTTCACTTATATATTTT [TGCATGCA_negctrl_site399] | 7.98 ± 0.35
ATATGAAAGGTGTACACACGCACACCCAAAAAAATA [CACACA_site2911] | 8.62 ± 0.47
ATATATAATATATATGCATGTGACATTAATAATATA [TGCATGCA_site880] | 8.57 ± 0.35
AACTGAGAAACCGAAGTGCAATATGTATATATACAT | 8.98 ± 0.32
CCACACTTAAAATACACACACACCAAAAAAAAAAAA [CACACA_site2709] | 8.43 ± 0.37
TTTTTTACGCATAACTTAATATGAGAATCCCTTTCT [GTGCAC_negctrl_site522] | 8.48 ± 0.4
TACACCCATGGACACACACACACGCATAAAAAAAAA [CACACA_site4933] | 8.63 ± 0.45
AAAAAAAAAAAAAAAACACACATTTGAAAGAAAGAA [CACACA_site3339] | 8.71 ± 0.33
ATTTTTATTTTCTTTACACACCACATAATTTTTTTT [CACACA_site6092] | 9.02 ± 0.52
CTTTTATGAAACAGTGCACACATAAAAATATATACA [CACACA_site8981] | 9.05 ± 0.21
TATATCGTTATATAAACACACAATATGTTTTTTATA [CACACA_site7730] | 8.29 ± 0.38
